Assay results: paper PMC4336329 (PLoS ONE, 2015)
Out of some 310,000 compounds screened, about 14,000 (4.5%) showed an effect of 50% or more. Effects have a minus sign here. This is one part of the list.

Molecular target: human ether-à-go-go-related gene (hERG) potassium channel (human, UniProt Q12809)
Test: primary screen, population patch clamp on CHO cells stably expressing hERG
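Note: peak tail current of the secondary pulse compared with the same well before compound.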

Sequence of human ether-à-go-go-related gene (hERG) potassium channel (Q12809 whole entry, looked up): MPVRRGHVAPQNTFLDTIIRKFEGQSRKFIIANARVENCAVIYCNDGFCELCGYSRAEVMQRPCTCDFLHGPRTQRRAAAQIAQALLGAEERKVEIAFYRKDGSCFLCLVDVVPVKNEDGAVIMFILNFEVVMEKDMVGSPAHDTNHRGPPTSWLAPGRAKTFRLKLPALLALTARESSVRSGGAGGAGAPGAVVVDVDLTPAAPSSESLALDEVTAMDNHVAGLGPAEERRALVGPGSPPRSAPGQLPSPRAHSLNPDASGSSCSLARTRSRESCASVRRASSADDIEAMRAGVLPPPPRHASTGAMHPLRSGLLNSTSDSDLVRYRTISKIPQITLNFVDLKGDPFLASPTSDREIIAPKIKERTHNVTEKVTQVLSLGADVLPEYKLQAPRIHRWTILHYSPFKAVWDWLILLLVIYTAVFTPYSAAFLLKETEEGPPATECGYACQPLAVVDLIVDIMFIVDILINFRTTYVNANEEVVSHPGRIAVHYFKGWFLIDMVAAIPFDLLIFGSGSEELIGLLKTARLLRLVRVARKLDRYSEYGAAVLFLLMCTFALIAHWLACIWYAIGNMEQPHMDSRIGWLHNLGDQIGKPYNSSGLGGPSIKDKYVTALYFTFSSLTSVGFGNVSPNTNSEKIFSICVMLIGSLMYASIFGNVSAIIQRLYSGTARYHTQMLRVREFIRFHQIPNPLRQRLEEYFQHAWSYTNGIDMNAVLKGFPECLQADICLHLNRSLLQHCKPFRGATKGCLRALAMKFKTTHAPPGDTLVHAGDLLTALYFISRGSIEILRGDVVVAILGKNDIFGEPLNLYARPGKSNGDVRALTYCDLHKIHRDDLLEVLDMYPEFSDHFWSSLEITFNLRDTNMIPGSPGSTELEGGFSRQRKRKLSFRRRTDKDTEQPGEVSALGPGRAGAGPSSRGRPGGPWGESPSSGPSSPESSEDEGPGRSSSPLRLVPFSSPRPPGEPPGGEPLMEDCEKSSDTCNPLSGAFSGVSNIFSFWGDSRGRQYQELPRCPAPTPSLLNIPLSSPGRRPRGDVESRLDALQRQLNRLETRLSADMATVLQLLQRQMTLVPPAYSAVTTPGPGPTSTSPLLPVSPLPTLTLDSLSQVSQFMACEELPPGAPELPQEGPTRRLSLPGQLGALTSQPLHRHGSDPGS

Row | SMILES | hERG current change (%, negative = inhibition) at 10uM [%]
1 | CCc1ccccc1Nc1nc(N)nc(CSc2nnnn2C)n1 | 8.71
2 | NS(=O)(=O)c1ccc(CCNC(=O)c2cc(=O)[nH]c3ccccc23)cc1 | 21.2
3 | NNC(=O)c1[nH]c(-c2ccccc2)cc1-c1ccccc1 | 21
4 | CC(CNS(=O)(=O)c1ccc(Cl)cc1)n1cncn1 (centres unmarked) | 10.4
5 | CC1CN(c2ccc(NS(=O)(=O)c3ccccc3)cc2C(=O)O)CC(C)O1 (centres unmarked) | 3.11
6 | COc1cccc(C2CC(C(F)(F)F)n3ncc(C(=O)NC(C)(C)C)c3N2)c1 (centres unmarked) | 14.9
7 | CCc1nc2ccccc2c(C(=O)NCc2ccc(OC)cc2)c1C | -15.7
8 | COC(=O)[C@H](C)NC(=O)NCc1ccc(F)cc1 | 9.23
9 | O=C(/C=C/c1cccc([N+](=O)[O-])c1)Nc1ccccn1 | 3.16
10 | CCOC(=O)N1CCN(C(=O)CSc2nc(=O)n3cc(C)ccc3n2)CC1 | -10.6
11 | CCn1c(SCC(=O)Nc2ccccc2F)nc2c(c1=O)SC(C)C2 (centres unmarked) | -17.4
12 | CCCOc1ccc(N2C(=O)CC(NCc3ccncc3)C2=O)cc1 (centres unmarked) | -11.6
13 | O=c1c2c(-c3cccs3)csc2ncn1/N=C/c1ccccn1 | 7.71
14 | Cc1ccc(NC(=O)CN(C)C(=O)c2cccc(S(=O)(=O)NCc3ccco3)c2)cc1 | -22
15 | O=C(COC(=O)CCCNC(=O)c1ccc(Cl)cc1)Nc1ccc(Br)cc1 | -8.05
16 | CN(C)CCOC(=O)/C(=C/c1cn(C)c2ccccc12)NC(=O)c1ccccc1 | -21.7
17 | CCN(CC)CCn1c(=S)[nH]c2cc3c(cc2c1=O)OCO3 | -24.2
18 | Cn1c(NC(=O)/C=C\c2ccccc2)cc(=O)n(C)c1=O | 17.4
19 | COc1ccc(C(C(=O)NC(C)(C)C)N(CCc2ccccc2)C(=O)CCC(=O)Nc2cc(C)on2)cc1 (centres unmarked) | -35.4
20 | CCc1ccc(NC(=O)Cn2cc([N+](=O)[O-])nc2C)cc1 | 19
21 | CN1CC(=O)N(CC(=O)Nc2ccc(N3CCOCC3)cc2)C1=O | 4.85
22 | COC(=O)c1ccccc1NC(=S)N(Cc1ccc2c(c1)OCO2)Cc1cc2cc(C)ccc2[nH]c1=O | 0.949

Row | SMILES | hERG current change (%, negative = inhibition) at 10uM [%]
23 | COc1ccccc1N(CC(=O)Nc1cccnc1)S(C)(=O)=O | 6.19
24 | CCCOc1ccc(C2c3c(oc4cc(C)c(C)cc4c3=O)C(=O)N2CCCN2CCOCC2)cc1 (centres unmarked) | -12.1
25 | Cc1cccc(-n2ncc3c(=O)[nH]c(SCC(=O)N4CC(=O)Nc5ccccc54)nc32)c1 | 11.6
26 | CC(C)OC(=O)CSc1nc(-c2ccc(F)cc2)nc2ccc(F)cc12 | -40
27 | CCCC(c1nnnn1CS(=O)(=O)c1ccc(C)cc1)N1CCN(c2ccccc2)CC1 (centres unmarked) | 0.335
28 | O=C(c1ccccc1NS(=O)(=O)c1ccc(F)cc1)N1CCCC1 | -11.3
29 | Cn1c(=O)[nH]c2sc3c(c2c1=O)CC(C)(C)OC3 | -11.6
30 | O=C1OC(CC(=O)N(Cc2nnc(-c3ccccc3Cl)o2)C2CC2)c2ccccc21 (centres unmarked) | -40.3
31 | O=C(COc1ccc(S(=O)(=O)NCCc2ccccc2)cc1)N1CCCC1 | -6.78
32 | CCn1c(CNc2ccc(OC)cc2)nnc1SCC(=O)c1ccc(OC)cc1 | -19.9
33 | CCN(CCn1cccn1)C(=O)c1ccc(OC2CCN(C(=O)COC)CC2)cc1 | 15.8
34 | CN1C(C(=O)Nc2cccc(O)c2)=CC(c2ccco2)=NS1(=O)=O | 5.21
35 | C/C(=N\NC(=O)c1ccccc1)c1ccc(-n2ccnc2)cc1 | -12.3
36 | CC(=O)c1ccc(NC(=O)C2CCCO2)cc1 (centres unmarked) | 14.9
37 | CCc1nnc(NC(=O)CCC(=O)NCCc2ccc(OC)c(OC)c2)s1 | 15.5
38 | C=CCNC(=S)NNC(=O)c1cccn(Cc2ccc(Cl)cc2Cl)c1=O | -0.856
39 | CC1(C)CC(NC(=S)Nc2ccc(S(N)(=O)=O)cc2)CC(C)(C)N1 | 9.88
40 | CCC(O)c1nc2ccccc2n1CCc1ccccc1 (centres unmarked) | -0.168
41 | COc1ccc([N+](=O)[O-])cc1NC(=O)CSCc1ccc(Br)cc1 | -19.4
42 | CCOC(=O)C1=C(C)N(c2ccc(Cl)cc2)C(=O)NC1c1cccc([N+](=O)[O-])c1 (centres unmarked) | -24.8
43 | CCN(CC)CCNC(=O)c1c(O)c2cc(OC)c(OC)cc2[nH]c1=O.Cl | 23.2
44 | Cc1ccc2cccc(OC(=O)/C=C\c3ccccc3)c2n1 | 30.8

Row | SMILES | hERG current change (%, negative = inhibition) at 10uM [%]
45 | CCOc1ccc(N(C)C(=O)CCc2nnc3ccc(N4CCC5(CC4)OCCO5)nn23)cc1 | 12.8
46 | COC(=O)c1ccccc1NC(=O)CSc1ncccn1 | -3.83
47 | CC1(C)C(C=C(Cl)Cl)C1C(=O)N/N=C/c1ccccc1F (centres unmarked) | 1.85
48 | CC(C)(C)NCC(O)COc1ccc(Br)cc1.Cl (centres unmarked) | -10.2
49 | Cc1cc(=O)oc2c(C)c(OC(C)C(=O)NCC3CCC(C(=O)O)CC3)ccc12 (centres unmarked) | 13.8
50 | Cc1cc(C)nc(NC(=O)/C=C/c2ccc(Cl)cc2)n1 | -25.4
51 | Cc1ccc(NC(=O)c2ccc(Oc3ncccn3)cc2)cc1 | 12.2
52 | O=C(NCCOc1ccc(F)cc1)C1CCC(=O)N(CC2CCCCC2)C1 (centres unmarked) | -33
53 | Cc1c(NC(=O)CSc2ccc(Cl)cc2)c(=O)n(-c2ccccc2)n1C | -12.5
54 | O=c1c(C(c2ccc(F)cc2)c2c(O)nc3n(c2=O)CCCS3)c(O)nc2n1CCCS2 | 9.97
55 | COc1ccccc1-n1ccnc(SCC(=O)NCc2ccccc2)c1=O | 14.4
56 | O=S(=O)(c1ccc(F)c(F)c1)N1CCCc2ccccc21 | 9.31
57 | Cc1nn(-c2ccccc2)c(N)c1C(O)(C(F)(F)F)C(F)(F)F | 9.92
58 | COC(=O)c1ccc(/C=N/NC(=O)CCSc2nc3ccccc3s2)cc1 | 11.2
59 | Cc1ccc(C(C)C)c(OCC(=O)NN2C(=O)c3ccccc3C2=O)c1 | -7.11
60 | Cc1ccccc1N1C(=O)NC(=O)/C(=C\c2ccc3c(c2)CCCN3Cc2ccccc2)C1=O | 11
61 | C=CCN(CC=C)Cc1c(C)[nH]c2c(C)c(C)ccc2c1=O | -24.4
62 | COCc1nnc(NC(=O)c2cc3ccccc3o2)s1 | 19.3
63 | O=C(N/N=C/c1ccc([N+](=O)[O-])s1)C(O)c1ccccc1 (centres unmarked) | 8.68
64 | CN(C(=O)CSc1nnc(-c2ccc(C(C)(C)C)cc2)n1C)C1CCS(=O)(=O)C1 (centres unmarked) | -3.7
65 | C#CCOCCOCCOCCNc1nc(OC)nc(N2CCN(C(=O)[C@H](CCC(=O)O)n3cc(C(N)CO)nn3)CC2)n1.Cl (some centres unmarked) | 22.5
66 | CC(C(=O)NCC1CCCO1)n1cc([N+](=O)[O-])cn1 (centres unmarked) | 11.7

Row | SMILES | hERG current change (%, negative = inhibition) at 10uM [%]
67 | COc1ccc(NS(=O)(=O)c2cccc(-c3nnc4n3CCCCC4)c2)cc1 | -11.4
68 | CSc1nsc(SCC(=O)Nc2ccccc2C(N)=O)n1 | -1.64
69 | CN(Cc1ccccc1)C(=O)CN1C(=O)c2ccccc2S1(=O)=O | 1.82
70 | Cc1c(C(=O)Nc2ccccc2F)cnn1-c1ccccc1 | 8.32
71 | COc1ccccc1C(=O)COC(=O)CCNS(=O)(=O)c1ccc(C)c(C)c1 | -21.9
72 | CC(C)CC(=O)NC(=S)NNC(=O)c1cccc([N+](=O)[O-])c1 | 12.2
73 | Cn1c(=O)c([N+](=O)[O-])c(-n2cnc3ccccc32)c2ccccc21 | -12.6
74 | CCOC(=O)c1nc2sc3c(c2c(=O)n1C(C)C(=O)OCC)CCCC3 (centres unmarked) | 1.81
75 | O=C(C1=C[C@H](c2ccccc2)C[C@H](OCc2ccc(CO)cc2)O1)N1CCOCC1 | -1.21
76 | COC(=O)C1=C(C)N=c2s/c(=C/c3ccoc3)c(=O)n2C1c1ccccc1 (centres unmarked) | -5.01
77 | O=C(COC(=O)c1ccccc1)Nc1ccccc1Br | -3.27
78 | Cc1cccc(C)c1NC(=O)c1c(-c2ccccc2)noc1C | -6.26
79 | CC1C2Cn3c(nc4ccccc43)C1N(C(C)C)O2 (centres unmarked) | 7.71
80 | O=C(CNCC1CCCO1)N1CCN(S(=O)(=O)c2ccc3ccccc3c2)CC1.O=C(O)C(=O)O (centres unmarked) | -27.2
81 | Cc1ccc(C(=O)Nc2cccc(NC(=O)c3cccs3)c2)c(C)c1 | -29.7
82 | COC(=O)c1cc(NC(=O)CC2NC3CCCCC3NC2=O)cc(C(=O)OC)c1 (centres unmarked) | -12.3
83 | O=C(O)CCCC(=O)N1CCN(C(c2ccccc2)c2ccccc2)CC1 | 7.31
84 | CC1=C(C(N)=O)C(c2cccs2)n2nc(-c3cccc(Cl)c3)nc2N1 (centres unmarked) | -24.9
85 | CCN(CC)S(=O)(=O)c1cccc(-c2n[nH]c(=S)n2/N=C/c2ccc(Br)cc2)c1 | 13
86 | O=C(O)c1ccccc1.OC(CNCC1CCCO1)Cn1c2ccc(Cl)cc2c2cc(Cl)ccc21 (centres unmarked) | -40.7
